This note sets out measurements from paper PMC4336329 (PLoS ONE, 2015).

Out of some 310,000 compounds screened, about 2,200 (0.71%) showed an effect of 50% or more. The effect is printed as a negative number. Some of the results follow.

In the experiment the target is human ether-à-go-go-related gene (hERG) potassium channel (human, UniProt Q12809). Nature of the experiment: primary screen, population patch clamp on CHO cells stably expressing hERG.
Chain of human ether-à-go-go-related gene (hERG) potassium channel (Q12809 whole entry, looked up): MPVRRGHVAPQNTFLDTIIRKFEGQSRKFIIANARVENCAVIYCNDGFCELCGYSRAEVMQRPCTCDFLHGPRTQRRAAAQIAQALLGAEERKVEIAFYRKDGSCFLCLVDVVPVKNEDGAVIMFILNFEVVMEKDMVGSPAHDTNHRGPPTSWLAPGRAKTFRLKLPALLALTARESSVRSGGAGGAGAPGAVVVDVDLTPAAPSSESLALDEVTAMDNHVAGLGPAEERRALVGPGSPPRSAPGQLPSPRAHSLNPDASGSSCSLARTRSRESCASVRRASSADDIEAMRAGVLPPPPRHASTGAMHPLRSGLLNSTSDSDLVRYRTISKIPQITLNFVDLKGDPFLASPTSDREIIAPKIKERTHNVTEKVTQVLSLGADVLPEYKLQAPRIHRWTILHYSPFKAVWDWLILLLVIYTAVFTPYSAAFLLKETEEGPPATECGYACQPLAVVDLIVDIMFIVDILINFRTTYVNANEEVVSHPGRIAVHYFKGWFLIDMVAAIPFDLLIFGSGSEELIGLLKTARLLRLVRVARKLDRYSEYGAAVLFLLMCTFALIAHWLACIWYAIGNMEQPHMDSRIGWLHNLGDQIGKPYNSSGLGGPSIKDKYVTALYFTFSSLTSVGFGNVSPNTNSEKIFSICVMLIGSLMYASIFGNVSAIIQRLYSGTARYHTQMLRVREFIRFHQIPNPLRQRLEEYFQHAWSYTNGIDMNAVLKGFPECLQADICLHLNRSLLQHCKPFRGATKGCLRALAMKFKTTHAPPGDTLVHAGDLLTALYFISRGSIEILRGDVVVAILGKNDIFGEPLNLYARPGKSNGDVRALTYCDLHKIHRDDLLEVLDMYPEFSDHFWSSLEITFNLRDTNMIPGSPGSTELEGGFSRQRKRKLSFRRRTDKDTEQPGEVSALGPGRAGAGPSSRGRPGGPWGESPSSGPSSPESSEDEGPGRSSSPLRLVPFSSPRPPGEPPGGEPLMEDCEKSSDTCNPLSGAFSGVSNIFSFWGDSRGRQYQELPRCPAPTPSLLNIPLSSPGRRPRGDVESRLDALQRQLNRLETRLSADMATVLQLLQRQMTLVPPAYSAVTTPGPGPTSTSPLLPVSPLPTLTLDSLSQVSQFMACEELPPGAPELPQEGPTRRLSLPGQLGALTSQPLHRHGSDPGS
Turning to `CN(C)/C=C/C(=O)c1cnc(-c2ccc(Cl)cc2)s1`, the “hERG current change (%, negative = inhibition) at 1uM” value is 0.981%.
With `CCc1nnc(NC(=O)CSc2nnc(COc3cccc(C)c3)o2)s1` the figure was 14.9%; with `O=C(NNC(=O)C1CC(=O)N(Cc2ccccc2)C1)c1ccc(Br)cc1` (centres unmarked), 5.96%; with `O=C(CSc1nnc(Cc2ccccc2)o1)c1ccccc1`, 7.87%.
With `Cc1nc2ccccc2c(=O)n1-c1cccc(NS(=O)(=O)c2ccccc2)c1`, the “hERG current change (%, negative = inhibition) at 1uM” value is on record as -5.49%.
With `CCNC(=S)/N=C(/Nc1ccccc1)Nc1nc(C)cc(C)n1` the figure was 10.4%.
`Cc1nc(NS(=O)(=O)c2ccc(Br)cc2)c2c3c(sc2n1)CCC3`: the “hERG current change (%, negative = inhibition) at 1uM” value was determined as 4.79%.
Then `CCN(CC)CCN1C(=O)C(O)=C(C(=O)c2sc(C)nc2C)C1c1cccnc1` (centres unmarked), with 14.2%.
With `CC(=O)c1ccc(OC(=O)C2CSC3(C)CCC(=O)N23)cc1` (centres unmarked) the figure was 10.3%; with `C#CCNC(=O)C1=C[C@H](c2cn(C(C)=O)c3ccccc23)[C@@H](CCCO)[C@H](OCC)O1`, -3.26%; with `O=C(NCc1cccc(Cl)c1)NCc1cccc(Cl)c1`, -7.94%.
With `Cc1ccc(NC(=O)NC(=O)COc2ccccc2C(N)=O)c(C)c1` the figure was 9.35%; with `Nc1ccccc1CNc1nc(NCCO)nc2c1ncn2CCN1CCOCC1`, 4.54%; with `Cc1cc2nc(CCN(Cc3cccnc3)C(=S)Nc3ccc(F)cc3)[nH]c2cc1C`, 12.4%.
As to `NS(=O)(=O)c1ccc(CCNC(=O)c2cc(-c3ccccc3)nc3ccccc23)cc1`, the “hERG current change (%, negative = inhibition) at 1uM” value was -1.32%.
For `CCOC(=O)c1c(NCC(C)C)c2ccccc2[nH]c1=O`, the “hERG current change (%, negative = inhibition) at 1uM” value is 5.78%.
Regarding `CC(C)C(=O)Nc1ccc(N2CCCC2)c(Cl)c1`, the “hERG current change (%, negative = inhibition) at 1uM” value stood at 20.2%.
Then `CCOC(=O)CN(c1cccc(C(C)=O)c1)S(C)(=O)=O`, with 5.94%; and `CCN(CC)CC.O=C1NC(=S)S/C1=C1\Sc2ccccc2N1CCCS(=O)(=O)O`, with 16.4%; and `CC1CCCC(C)N1CC(O)COc1ccc(Cl)cc1` (centres unmarked), with -57.6%.
In the case of `CCCCCCCC1=CC2=CC(=O)C(C)(OC(C)=O)C(=O)C2=CN1CCc1ccccc1` (centres unmarked), the “hERG current change (%, negative = inhibition) at 1uM” value was -2.78%.
Then `Cc1ccc(SCCSc2nc(N)cc(=O)[nH]2)cc1`, with 12.8%; and `CCn1c(CSc2ncccn2)nnc1SCC(=O)N1c2ccccc2CC1C` (centres unmarked), with 4.13%.
With `CC(OC(=O)c1cc2c(s1)CCCCC2)C(=O)NC(N)=O` (centres unmarked), the “hERG current change (%, negative = inhibition) at 1uM” value is recorded as -1.42%.
Then `CC(C)c1cc(C(=O)Nc2cccc(C(F)(F)F)c2)no1`, with 14%.
`CCOC(=O)c1sc(=S)n(CC)c1NC(=O)CC`: the “hERG current change (%, negative = inhibition) at 1uM” value is given as 11.2%.
Consider `COC(=O)c1cc(C(=O)Nc2nnc(CC(C)C)s2)cc([N+](=O)[O-])c1`, for which the “hERG current change (%, negative = inhibition) at 1uM” value is reported as 2.11%.
As for `Cc1nn(C)c(C)c1S(=O)(=O)N1CCC(C(=O)NC(C)c2ccccc2)CC1` (centres unmarked), the “hERG current change (%, negative = inhibition) at 1uM” value is 14%.
Consider `CCOC(=O)C1CCN(C(=O)c2ccc3c(c2)NC(=O)/C(=C/c2ccccc2)S3)CC1`, for which the “hERG current change (%, negative = inhibition) at 1uM” value came out at 11.9%.
Then `CCOc1ccc(-c2nc(C#N)c(NC3CC3)o2)cc1`, with 10.8%; and `O=C(Cn1nc(-c2cccs2)ccc1=O)Nc1ccc(Br)cc1`, with -6.2%; and `CC(=O)Nc1ccc(S(=O)(=O)N2CCC(NC(=O)c3ccccc3)CC2)cc1`, with 14.6%.
As for `Cn1c(SCC(=O)Nc2ccc3cn[nH]c3c2)nnc1-c1cccs1`, the “hERG current change (%, negative = inhibition) at 1uM” value is -5.92%.
With `CC(=O)Nc1ccc(NS(=O)(=O)c2cn(C)c(=O)n(C)c2=O)cc1` the figure was 6.39%.
Turning to `CC1=CC(c2ccccc2)n2nc(NS(=O)(=O)c3ccc(C)cc3)nc2N1` (centres unmarked), the “hERG current change (%, negative = inhibition) at 1uM” value is on record as -2.76%.
Then `CCOc1ccc(NC(=O)CN2C(=O)C(C)SC(C)C2=O)cc1` (centres unmarked), with 3.37%; and `COc1ccc2c(c1O)-c1c(OC)c(OC)cc3c1[C@H](C2)N(C)CC3`, with -2.13%.
With `Cc1ccc(CN(C(=O)c2ccccc2C)C2CCS(=O)(=O)C2)o1` (centres unmarked) the figure was -7.14%; with `COCCN1CC(C(=O)N2CCC(Oc3ccccc3OC)CC2)CCC1=O` (centres unmarked), -5.44%; with `O=C(OCc1nnc(-c2ccc(Cl)cc2)o1)c1ccc(=O)n(Cc2ccccc2)n1`, 5.81%.
Then `O=C(O)c1cc(N/N=C/c2ccc(N3CCOCC3)cc2)ccc1Cl`, with 3.86%.
With `O=C1Nc2ccc(F)cc2C12OCCO2`, the “hERG current change (%, negative = inhibition) at 1uM” value turned out to be 16.7%.
Then `Cc1cc(-c2ccccc2)c2ccc(NC(=O)C(C)(C)C)nc2n1`, with 11.7%; and `CCOc1ccc(-c2nnc(-c3cccnc3)o2)cc1OCC`, with -22.8%; and `COc1ccc(CC(=O)OCC(=O)Nc2ccc3c(c2)OCO3)cc1OC`, with 9.33%.
For the compound `O=C(/C=C/c1cccc([N+](=O)[O-])c1)NCCSCc1cccc(Cl)c1`, the “hERG current change (%, negative = inhibition) at 1uM” value came to 7.06%.
Consider `CC(C)c1nnc(SCC(=O)NC2CCCC2)n1C`, for which the “hERG current change (%, negative = inhibition) at 1uM” value came to 16.6%.
For `CC(C)c1[nH]c(=O)c(C#N)c2c1COC(C)(C)C2`, the “hERG current change (%, negative = inhibition) at 1uM” value was -22.2%.
With `C=C(C)CN1CCN(c2c(CCC#N)c(C)c(C#N)c3nc4ccccc4n23)CC1`, the “hERG current change (%, negative = inhibition) at 1uM” value was -0.835%.
With `S=C(Nc1cccc2ccccc12)N1CCN(c2ncccn2)CC1` the figure was 17.5%; with `C=C(C)Cn1c(=S)[nH]c2ccccc2c1=O`, 5.35%; with `CCOC(=O)c1c(C=O)c(C)n(Cc2ccccc2Cl)c1C`, 11.8%.
With `O=C(Nc1cc(S(=O)(=O)N2CCOCC2)ccc1N1CCCC1)c1ccc(F)cc1` the figure was -10.7%; with `CCOC(=O)c1c(C)n(-c2ccc(C)cc2)c2c(CC(C)=O)c(Br)c(OC)c(O)c12`, 20%.
With `COc1ccc(S(=O)(=O)NCC(=O)N(CC(=O)NCc2ccco2)Cc2ccc(F)cc2)cc1`, the “hERG current change (%, negative = inhibition) at 1uM” value was 0.43%.
With `CN(C)C=Nc1c(Br)cc(Br)c2nonc12` the figure was -11.8%.
`CC(C)Oc1ccc(C2c3c(oc4ccccc4c3=O)C(=O)N2CCCN2CCOCC2)cc1` (centres unmarked): the “hERG current change (%, negative = inhibition) at 1uM” value is reported as -4.7%.
As to `O=C1NC(=O)N(c2ccccc2)C(=O)/C1=C/c1ccc2c(c1)Cc1ccccc1-2`, the “hERG current change (%, negative = inhibition) at 1uM” value turned out to be 13.6%.
As for `CCOC(=O)CSc1nc(C)cc(C)c1C#N`, the “hERG current change (%, negative = inhibition) at 1uM” value is 8.12%.
With `O=C(OCCN=C1NS(=O)(=O)c2ccccc21)c1cccc([N+](=O)[O-])c1` the figure was 12.8%.
Then `CN(Cc1nc(-c2cccnc2)no1)S(=O)(=O)c1ccccc1`, with -4.45%.
With `Cc1ccc(NC(=O)/C(C#N)=C/c2ccsc2)c(C)c1` the figure was 15.6%; with `CC(=O)NC(O)C(=O)c1ccco1` (centres unmarked), 14.8%; with `Cc1ccc(CC(=O)NCCS(=O)c2ccc(C)cc2)cc1` (centres unmarked), 8.71%.
In the case of `O=C(NC(N1CCCCCC1)C(Cl)(Cl)Cl)c1ccccc1Cl` (centres unmarked), the “hERG current change (%, negative = inhibition) at 1uM” value is 12.9%.
With `COc1ccc(C(=O)Nc2ccccc2C(=O)Nc2cc(C)ccn2)cc1` the figure was 9.08%; with `COc1ccccc1N1CCN(C(=O)c2ccc(COc3cccc4c3OC(C)(C)C4)cc2)CC1`, 4.86%.
Then `Cc1ccc(OCc2nnc(N)s2)cc1C`, with 13.9%; and `COc1ccc(C(C)=O)cc1CN1C(=O)NC2(CCCCCC2)C1=O`, with -3.38%.
Then `COc1ccc(C(=O)/C=C/c2ccc(C)cc2)c(OC(=O)c2ccc([N+](=O)[O-])cc2)c1`, with 6.76%.
Regarding `O=S(=O)(c1ccc(S(=O)(=O)N2CCCN(Cc3ccccc3)C2)cc1)N1CCCCCC1`, the “hERG current change (%, negative = inhibition) at 1uM” value turned out to be 10%.
Turning to `COc1ccc(CCNC(=O)C2c3ccccc3C(=O)N2CCC(C)C)cc1OC` (centres unmarked), the “hERG current change (%, negative = inhibition) at 1uM” value was 13.8%.
With `CCOc1ccc(-c2cc(C(=O)NCCCN3CCN(CC)CC3)c3ccccc3n2)cc1` the figure was -4.12%.
For the compound `NC(=O)Cn1nnc(-c2ccccc2NC(=O)c2cnccn2)n1`, the “hERG current change (%, negative = inhibition) at 1uM” value is recorded as 11.3%.
With `CC1CCN(C(=O)CN2C(=O)C(=O)N(C(C)C)C2=O)c2ccccc2S1` (centres unmarked) the figure was 3.69%; with `Cc1ccc(CNC(=O)C2CCC(=O)N(CCc3ccccc3)C2)s1` (centres unmarked), 18.1%.
For `CC1CN(C(=O)CCC(=O)NCc2cccnc2)c2ccccc2O1` (centres unmarked), the “hERG current change (%, negative = inhibition) at 1uM” value is 5.05%.
With `COC(=O)C1=C(C)N(C)C(=S)N(C)C1c1ccc(OC)cc1` (centres unmarked), the “hERG current change (%, negative = inhibition) at 1uM” value is on record as -2.15%.
Regarding `COc1ccc(N2CCN(CCCNC(=O)CC3Oc4ccc(C)cc4NC3=O)CC2)cc1` (centres unmarked), the “hERG current change (%, negative = inhibition) at 1uM” value was -29.9%.
Then `Cc1ccc(/C=C/c2onc(C)c2S(=O)(=O)N2CCC(C(=O)N3CCCCC3)CC2)cc1`, with 7.15%; and `COc1ccc(NS(=O)(=O)c2ccc(NC(=S)NC(=O)CC(C)C)cc2)cc1`, with 4.45%.
On to `CCCC1C(=O)N(Cc2ccccc2)C(=O)CC1C` (centres unmarked), for which the “hERG current change (%, negative = inhibition) at 1uM” value was 12.4%.
Then `Cc1cnc(SCCc2ccncc2)nc1C.Cl`, with 6.33%; and `CC(C)CCNC(=O)C1CCN(Cc2cccc(OCc3ccccc3)c2)CC1.O=C(O)C(=O)O`, with -10.6%; and `CCc1ccc(OC(=O)/C=C/c2ccco2)cc1`, with 5.5%.
Then `CCCn1c(=O)c2c(nc(Br)n2CCC)n(C)c1=O`, with 9.07%; and `CCOC(=O)C(NC(=O)NCc1ccccc1OC)(OCC)C(F)(F)F` (centres unmarked), with 3.63%.
Then `COc1cc(C2=NOC(C(=O)Nc3ccc4c(c3)OCO4)C2)cc(OC)c1OC` (centres unmarked), with 15.5%; and `COc1ccc2nc(NC(=O)CSc3nc4cccnc4n3C)sc2c1`, with 14.2%.
